# Where “and” joins values, the source holds several entries; their conditions need not be identical. Equal entries are not always repeated. Screen size: about 360,000 compounds; about 25,000 (6.9%) were called active. This list was built around the results that the source calls inconclusive (neither active nor inactive); the mix of calls is not that of the screen. Calls come from the whole dose curve; as a rule, active = well fitted inhibition curve with a large enough effect; inconclusive = small, poorly fitted or top-dose-only effect; inactive = flat fitted curve, though single readings scatter. Where the call is inconclusive, the potency comes from a doubtful curve fit.
# Biological target: Luciferin 4-monooxygenase (Photinus pyralis) (UniProt P08659)
# Chain of UniProt P08659 (P08659 whole entry, looked up): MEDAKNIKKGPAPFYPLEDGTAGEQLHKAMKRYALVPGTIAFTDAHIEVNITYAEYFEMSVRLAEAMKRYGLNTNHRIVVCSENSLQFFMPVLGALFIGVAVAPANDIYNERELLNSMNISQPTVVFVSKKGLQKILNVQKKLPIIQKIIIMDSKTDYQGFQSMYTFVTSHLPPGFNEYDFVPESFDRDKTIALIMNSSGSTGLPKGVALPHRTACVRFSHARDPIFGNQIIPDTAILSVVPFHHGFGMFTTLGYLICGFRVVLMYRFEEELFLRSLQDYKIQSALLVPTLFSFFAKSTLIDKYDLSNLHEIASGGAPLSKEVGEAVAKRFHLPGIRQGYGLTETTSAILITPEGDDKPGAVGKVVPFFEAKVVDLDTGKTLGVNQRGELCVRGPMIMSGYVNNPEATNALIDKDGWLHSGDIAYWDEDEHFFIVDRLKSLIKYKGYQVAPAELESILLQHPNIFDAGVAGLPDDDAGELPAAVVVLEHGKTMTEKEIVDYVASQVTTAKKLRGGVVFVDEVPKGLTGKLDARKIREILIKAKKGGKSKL
# Assay: qHTS profiling assay for firefly luciferase inhibitor/activator using purifed enzyme and Km concentrations of substrates (counterscreen for miR-21 project); note: nearly all actives have a fitted effect of over 55% in size
# Conditions: purified FLuc, luminescence inhibition; series mostly up to 57.5 µM
# How it was run: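 Purified P. pyralis luciferase, 10 nM final, with Km-level 10 uM D-luciferin and 10 uM ATP in 50 mM Tris acetate pH 7.5, 10 mM Mg acetate, 0.01% Tween-20, 0.05% BSA; 6-point qHTS titration about 60 µM downward; luminescence read.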
# Potency is the fitted concentration of half-maximal effect; tags give direction and shape of the fitted curve.
row,SMILES,Potency
1,CCCc1ccc(C(=O)Cn2nc(C(=O)O)c3ccccc3c2=O)cc1,"inconclusive: 2.69 µM [inhibitor, full curve, poor fit]"
2,Cc1ccc2oc(=O)c3cc(C(=O)N4CCN(c5ccccc5)CC4)sc3c2c1,inactive
3,COc1ccc(-n2c(=O)[nH]cc(C(=O)Nc3ccc4c(c3)OCO4)c2=O)cc1OC,"inconclusive: 37.9 µM [inhibitor, single point]"
4,COc1cc(C2NC(=O)C(C#N)=C(S)N2c2ccccc2)ccc1OC(C)C (stereo not drawn),"inconclusive: 26.9 µM [inhibitor, single point]"
5,Cc1ccccc1CCNC(=O)c1ccc2c(c1)c(C)c(C)n2C,"inconclusive: 19 µM [inhibitor, partial curve, poor fit]"
6,Cc1ncc([N+](=O)[O-])n1Cc1ccccc1F,inactive
7,Nc1nnc(SCC(=O)Nc2cccc(S(=O)(=O)N3CCOCC3)c2)s1,inactive
8,Cc1ccc(-n2cc(CNCCCn3cccn3)c(-c3cccc(C)c3)n2)cc1,"inconclusive: 19 µM [inhibitor, partial curve]"
9,COc1ccccc1/C=C/C=N/n1c(-c2ccc(C)cc2)n[nH]c1=S,"inconclusive: 37.9 µM [inhibitor, single point]"
10,CCN(CC)C(=O)COc1ccc(/C(C)=N/Nc2ncc(Cl)cc2Cl)cc1,"inconclusive: 23.9 µM [inhibitor, partial curve]"
11,COc1ccc(/C=C/C(=O)c2ccc(O)cc2)cc1COc1ccc(F)cc1,active: 15.1 µM
12,COc1ccc(NC(=O)CN2CCC(NC(=O)c3ccc(OC)cc3)CC2)cc1,"inconclusive: 23.9 µM [inhibitor, single point]"
13,O=C(/C=C/NCc1cccnc1)c1ccc(-c2ccccc2)cc1,"inconclusive: 13.5 µM [inhibitor, partial curve, poor fit]"
14,Cc1cc(O)c(C=O)c2c1C(=O)Oc1c(CO)c(O)c3c(c1O2)C(O)OC3=O (stereo not drawn),"inconclusive: 37.9 µM [inhibitor, partial curve, poor fit]"
15,CCOC(=O)Cn1c(=NC(=O)c2cccs2)sc2cc(C(=O)OC)ccc21,"inconclusive: 12 µM [inhibitor, partial curve]"
16,Cc1ccc(C(=O)Nc2cccc([N+](=O)[O-])c2)cc1S(=O)(=O)Nc1cccc(C(=O)O)c1,"inconclusive: 16.9 µM [inhibitor, partial curve]"
17,CC(C)N(C(=O)COC(=O)CNC(=O)c1ccc(Br)cc1)c1ccccc1,inactive
18,COc1ccc(C2c3c(-c4ccccc4)n[nH]c3C(=O)N2c2ccc(C(=O)O)cc2)c(OC)c1 (stereo not drawn),"inconclusive: 33.8 µM [inhibitor, partial curve, poor fit]"
19,COc1ccc(/C=C2\SC(=N)N(c3ccc(F)cc3)C2=O)cc1OC,"inconclusive: 30.1 µM [inhibitor, partial curve, poor fit]"
20,CC(C)Cc1nnc(NC(=O)c2cc3c(s2)CCC3)s1,"inconclusive: 5.36 µM [inhibitor, partial curve]"
21,Cc1cccc(OCC(=O)N/N=C/c2ccc3c(c2)OCO3)c1,"inconclusive: 13.5 µM [inhibitor, partial curve, poor fit]"
22,N#C/C(=C\c1ccccc1OCC(=O)O)c1nc2ccccc2[nH]1,"inconclusive: 33.8 µM [inhibitor, single point]"
23,COC(=O)c1ccc2c(c1)sc(=NC(=O)c1ccc(S(=O)(=O)N3CCCCC3)cc1)n2C,inactive

row,SMILES,Potency
1,CCOC(=O)c1c(NC(=S)NNS(=O)(=O)c2ccc(Br)cc2)sc2c1CCCCC2,inactive
2,Cc1ccc(-c2cnc(C3CC3)o2)cc1S(=O)(=O)Nc1cccc(C#N)c1,"inconclusive: 23.9 µM [inhibitor, partial curve]"
3,O=c1[nH][nH]cc1C=Nc1ccc(Oc2ccccc2)cc1,"inconclusive: 37.9 µM [inhibitor, partial curve, poor fit]"
4,Cc1c(CC(=O)NCCCC(=O)O)c(=O)oc2c(C)c3oc4c(c3cc12)CCCC4,"inconclusive: 12 µM [inhibitor, partial curve]"
5,COc1ccccc1C(=O)Nc1ccc2[nH]ncc2c1,"inconclusive: 15.1 µM [inhibitor, partial curve]"
6,CNC(=O)/C(C#N)=C/c1ccc(-c2ccccc2[N+](=O)[O-])o1,"inconclusive: 37.9 µM [inhibitor, partial curve, poor fit]"
7,COc1ccc(/C=C(/NC(=O)c2cccc([N+](=O)[O-])c2)C(=O)O)cc1,"inconclusive: 26.9 µM [inhibitor, single point]"
8,CCOc1ccc(N2Cc3ncccc3C2=O)cc1,active: 13.5 µM
9,O=[N+]([O-])c1ccc(-c2c(-c3ccccc3)ncc3ccc(F)cc23)cc1,"inconclusive: 13.5 µM [inhibitor, single point]"
10,Cc1cccc(NC(=O)c2cccc(N3CCCS3(=O)=O)c2)c1,"inconclusive: 37.9 µM [inhibitor, single point]"
11,COc1ccc(/C=C/C(=O)c2ccc(OC)cc2OC)c(OC)c1,active: 19 µM
12,O=C(Oc1cccnc1)c1ccccc1[N+](=O)[O-],inactive
13,COC(=O)c1ccc(NC(=O)c2cc3sccc3n2C)cc1,active: 10.7 µM
14,O=C(O)c1ccccc1-c1ccc(/C=C2\SC(=O)N(c3ccccc3)C2=O)o1,active: 13.5 µM
15,CCn1c(SCC(=O)Nc2nc3ccc(OC)cc3s2)nc2c1c(=O)n(C)c(=O)n2C,"inconclusive: 23.9 µM [inhibitor, partial curve, poor fit]"
16,Cc1cccc(C)c1NC(=O)CCSc1nc(-c2ccc3c(c2)OCO3)cc(C(F)(F)F)n1,inactive
17,CCCC12CN3CC(CCC)(CN(C1)C3c1ccc(OCc3ccccc3)cc1)C2=O (stereo not drawn),inactive
18,Cc1ccc(-c2nc(-c3cccnc3)no2)cc1,active: 1.51 µM
19,Fc1ccccc1C(NCCc1ccc(Cl)cc1)c1nnc(-c2ccccc2)o1 (stereo not drawn),inactive
20,O=C(CC(=O)NC1CCCCC1)N/N=C/c1ccccc1[N+](=O)[O-],"inconclusive: 37.9 µM [inhibitor, partial curve, poor fit]"
21,CCOC(=O)c1[nH]c2c(c1-c1ccccc1)C(=O)CC(c1ccccc1)C2 (stereo not drawn),"inconclusive: 7.57 µM [inhibitor, partial curve, poor fit]"
22,Cc1ccc(Nc2ccc(N3CCN(C(=O)c4cccc([N+](=O)[O-])c4)CC3)nn2)cc1,inactive
23,COc1ccc(C(=O)C[n+]2ccc(C)cc2)cc1,inactive

row,SMILES,Potency
1,CCOC(=O)C1=NOC2COC3(CCN(c4ncccn4)CC3)OCC12 (stereo not drawn),inactive
2,CCOC(=O)C1CCN(C(=O)CSc2ccc(Br)cc2)CC1,"inconclusive: 30.1 µM [inhibitor, partial curve, poor fit]"
3,c1cncc(-c2nc3ccccc3[nH]2)c1,"inconclusive: 30.1 µM [inhibitor, partial curve, poor fit] and inconclusive: 26.9 µM [inhibitor, single point]"
4,CCOc1ccc(NC(=O)c2ccc(NC(=O)c3ccc(CN4CCOCC4)cc3)cc2)cc1,inactive
5,O=C(Nc1ccccc1)N1CC=C(c2ccccc2)CC1,active: 4.78 µM
6,O=C(c1ccc(Cl)cc1)c1cnc(-c2ccccc2)s1,"inconclusive: 0.849 µM [inhibitor, partial curve, poor fit]"
7,CCN(C(=O)c1sc2nc3n(c(=O)c2c1C)CCCC3)c1ccccc1F,"inconclusive: 13.5 µM [inhibitor, partial curve]"
8,Cc1cccc(NC(=O)Cc2nnc(NC(=O)Nc3ccccc3F)s2)c1,"inconclusive: 0.0085 µM [inhibitor, partial curve, poor fit]"
9,CC(C)N(CCO)C(=O)CCc1nnc(Cc2cccc(C(F)(F)F)c2)o1,inactive
10,O=C(COC(=O)c1cccc(Cl)c1Cl)NCc1cccs1,"inconclusive: 30.1 µM [inhibitor, partial curve, poor fit]"
11,COc1ccc(-c2noc(-c3cccs3)n2)cc1OC,active: 2.39 µM
12,COc1ccc(Nc2nnc(C)c3ccccc23)cc1,"inconclusive: 19 µM [inhibitor, single point]"
13,COc1ccc(C)cc1NC(=O)NCc1ccccc1F,"inconclusive: 8.49 µM [inhibitor, full curve]"
14,CC(C)c1ccc(N(C(=O)c2ccco2)C(C(=O)NC2CCCC2)c2ccncc2)cc1 (stereo not drawn),"inconclusive: 23.9 µM [inhibitor, partial curve]"
15,Oc1cccc(/C=N/Nc2ccc(Cl)nn2)c1,"inconclusive: 23.9 µM [inhibitor, partial curve]"
16,O=C(CCCN1C(=O)/C(=C/c2ccc3c(c2)OCO3)SC1=S)Nc1ccc(C(=O)O)cc1,inactive
17,CN(C)S(=O)(=O)c1cccc(NC(=S)N/N=C/C2CC=CCC2)c1 (stereo not drawn),"inconclusive: 21.3 µM [inhibitor, single point]"
18,O=C(O)c1ccc(CSc2nnc(SCc3ccccc3)s2)cc1,"inconclusive: 30.1 µM [inhibitor, single point]"
19,CCCCCCCCCCCC(=O)NC(C(=O)O)C(O)c1ccccc1 (stereo not drawn),"inconclusive: 26.9 µM [inhibitor, single point]"
20,Nc1nc(NC(=O)c2ccccc2)nn1-c1ccccc1,"inconclusive: 19 µM [inhibitor, partial curve]"
21,Cc1cc(O)c(C(c2ccccc2)N2CCC(C)CC2)c(=O)n1Cc1ccco1 (stereo not drawn),"inconclusive: 26.9 µM [inhibitor, partial curve, poor fit]"
22,COc1ccc(-n2nc(C(=O)NCC(=O)N3CC(C)CC(C)C3)c3ccccc3c2=O)c(OC)c1 (stereo not drawn),"inconclusive: 21.3 µM [inhibitor, partial curve]"

# Reference: PubChem BioAssay AID588342 (National Center for Advancing Translational Sciences (NCATS), 2011)
